# This is one part of the list. Values were computed here from the reads of four pooled replicates and scatter widely.
# Target: T1, Pho4 (S. cerevisiae) (UniProt P07270)
# T1 sequence: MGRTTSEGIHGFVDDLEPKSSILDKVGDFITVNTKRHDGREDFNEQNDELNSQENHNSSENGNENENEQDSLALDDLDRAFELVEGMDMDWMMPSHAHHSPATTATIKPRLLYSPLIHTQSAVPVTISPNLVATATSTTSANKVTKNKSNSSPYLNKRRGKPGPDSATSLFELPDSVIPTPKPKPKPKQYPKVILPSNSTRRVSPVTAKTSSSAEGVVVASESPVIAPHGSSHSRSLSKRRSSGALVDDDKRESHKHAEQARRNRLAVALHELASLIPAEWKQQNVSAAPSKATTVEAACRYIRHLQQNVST
# Assay: relative binding free energy (BET-seq); higher = weaker binding
# Conditions: reference: library average
row,Sequence,relative binding free energy [kcal/mol]
1,GGTTACACGTGGCTAT,0.12
2,CAGTTCACGTGGTAGA,0.25
3,TCGATCACGTGGAGGT,0.16
4,GTGGACACGTGGGCAT,-0.14
5,GTACTCACGTGTTGGG,0.13
6,TGGGTCACGTGTATTT,0.12
7,GTCGGCACGTGGCGGG,-0.21
8,GGTATCACGTGTCGGG,0.25
9,ATTTACACGTGTTATT,0.12
10,ATTGGCACGTGAGGTG,0.03
11,AGAGTCACGTGAAGTA,0.29
12,GGCAGCACGTGGTGTT,-0.15
13,AGTGGCACGTGAATTA,0.12
14,ATGGACACGTGTATAT,-0.02
15,TGGTCCACGTGGGTAA,-0.25
16,GAAGTCACGTGGGGCA,-0.1
17,CTTTGCACGTGGTTTC,-0.03
18,GTGGCCACGTGTGGTA,0
19,TAGAACACGTGTTTTT,-0.05
20,ATTAGCACGTGTGGTA,-0.05
21,AGTTTCACGTGACATG,0.32
22,TTGGCCACGTGTGATA,0.04
23,GGACACACGTGGTGGG,-0.02
24,ATAGACACGTGTTTGT,-0.07
25,TGTGTCACGTGGCAGC,0.11
26,TGTTGCACGTGTGTAT,0.06

row,Sequence,relative binding free energy [kcal/mol]
1,GAGAACACGTGTAGGT,0.11
2,AGTTGCACGTGGTGGC,0.01
3,TATAACACGTGTTGTG,-0.06
4,AGTCTCACGTGTTAAG,0.2
5,CGGTACACGTGGTTCT,0.13
6,TGCGCCACGTGGAGGG,-0.19
7,AACTGCACGTGGTGGA,0.05
8,CAGGGCACGTGGTGGA,-0.26
9,AGCGACACGTGAGGTA,0.31
10,ATTTTCACGTGTGAGT,0.4
11,AGTAGCACGTGAGGTC,0.19
12,ATAGGCACGTGTAGGA,-0.1
13,GTGGGCACGTGGGGGT,-0.2
14,GTGGGCACGTGGTTCA,-0.1
15,ACGTGCACGTGGTGAA,-0.17
16,GTTCGCACGTGTGGGA,0.17
17,GGAGGCACGTGTACGT,-0.22
18,TTGTACACGTGTCGTG,0.11
19,AAGTTCACGTGATAAA,0.46
20,TTTTGCACGTGTGAGA,0.17
21,GGAGGCACGTGTACTG,-0.11
22,AGGTTCACGTGGTGGG,0.32
23,TGATACACGTGAAGTG,0.2
24,CTGCGCACGTGGTGGC,-0.21
25,GTCTTCACGTGGTAGT,0.3
26,CGTAACACGTGTTTGA,0.08

row,Sequence,relative binding free energy [kcal/mol]
1,TTCGTCACGTGGATGG,0.13
2,GTATACACGTGAGAGG,0.3
3,GTTGTCACGTGGGGTG,0.03
4,CGGTTCACGTGAATGT,0.36
5,GGGTGCACGTGAAGAA,0.31
6,TTTCTCACGTGGAGAT,0.15
7,GCTGTCACGTGGTTTC,0.21
8,TAATACACGTGGTTGG,-0.04
9,CTTATCACGTGTAATT,0.15
10,TTTTGCACGTGCGTCT,-0.04
11,TTCGGCACGTGCGGGC,-0.08
12,AGATACACGTGGTGGC,0.03
13,TGGTGCACGTGTTGGC,0.07
14,AATTACACGTGTTGAG,0.02
15,TTCCGCACGTGAGGGG,0.03
16,GGCAACACGTGTTTGG,0.19
17,GTGAGCACGTGGCCGG,-0.23
18,TATTGCACGTGATAGT,0.12
19,GTGGCCACGTGTAGGG,-0.06
20,GTATGCACGTGTCTTG,-0.03
21,TGAGACACGTGAGTGA,0.27
22,TTGAGCACGTGCGCTG,-0.16
23,CTTGTCACGTGTGCAT,-0.09
24,GTGGTCACGTGCGGAT,0.03
25,GTCGGCACGTGATTTT,0.14
26,GTACTCACGTGTTGGA,0.46

row,Sequence,relative binding free energy [kcal/mol]
1,GGAAGCACGTGTGCGT,-0.02
2,TAGTACACGTGCGGTA,0
3,TTTTTCACGTGGCAGG,0.32
4,TGTATCACGTGCGTAT,0.18
5,GAGCGCACGTGGGTCG,-0.2
6,TGGCGCACGTGGCCGG,-0.28
7,TGGTCCACGTGTGTAG,0.03
8,GCTGCCACGTGAGGGG,0.08
9,GGGTTCACGTGTCAGA,0.42
10,GGGGCCACGTGGAAGT,0
11,TGGAGCACGTGACTTG,0.05
12,TAAAGCACGTGTTGTC,-0.12
13,AGGGGCACGTGTGCCG,-0.04
14,TTTTCCACGTGGGTAG,-0.07
15,AGGTACACGTGCATTT,0.15
16,TAAAGCACGTGTACGG,0
17,GCGATCACGTGTGGCG,0.21
18,TATTGCACGTGTGTCT,-0.07
19,ATGTTCACGTGGTACT,0.11
20,CTCTTCACGTGTATTT,0.24
21,GGATGCACGTGATTTT,0.17
22,GGGTGCACGTGTCATA,-0.08
23,AATAGCACGTGGATAG,0.08
24,GATTTCACGTGAGCGT,0.2
25,TGGAGCACGTGTTGTA,-0.01
26,TGATTCACGTGGGTAA,0.14

row,Sequence,relative binding free energy [kcal/mol]
1,CTAGGCACGTGGAAGT,0.05
2,AAGTGCACGTGTGGTT,0.06
3,TTATGCACGTGCGTGA,-0.12
4,TACGTCACGTGTGGTG,0.07
5,TGGATCACGTGCGGAA,0.26
6,TGCAGCACGTGAGGGC,0.04
7,TGGATCACGTGTACTG,0.22
8,AAGGGCACGTGTCGGC,-0.2
9,CTGGTCACGTGATGGG,0.06
10,GGCTGCACGTGTGTAG,-0.03
11,GTAAACACGTGCGGGT,0.12
12,TGTTTCACGTGTAGAC,0.36
13,TTGGGCACGTGGCGTA,-0.23
14,TCTTTCACGTGACTGG,0.54
15,GATAGCACGTGTGGGA,0.16
16,GAAATCACGTGGATGG,0.23
17,GTGAACACGTGAATTG,0.4
18,TTGGACACGTGTAGTA,0.05
19,CTTTGCACGTGTCTTT,0.02
20,GGAGGCACGTGTAAAG,-0.13
21,TGCGTCACGTGGGGCC,-0.01
22,TTCGGCACGTGTTTGG,-0.01
23,TTTGTCACGTGGGTGA,-0.06
24,GAATCCACGTGTGGGG,0.04
25,TGTATCACGTGTGCTT,0.12
26,CAAGGCACGTGGTCGG,-0.3

row,Sequence,relative binding free energy [kcal/mol]
1,GGCAGCACGTGGGCGG,-0.25
2,AATTCCACGTGTGGGT,0.15
3,GGTGGCACGTGCGAGG,0.01
4,AGATGCACGTGGGGGA,-0.21
5,GTGGGCACGTGCGAAT,-0.12
6,TAAGTCACGTGTACGT,0.06
7,TTTGACACGTGGTGTG,-0.03
8,GTTGGCACGTGGGTCA,-0.14
9,ATTAGCACGTGATAGT,0.06
10,TATTACACGTGTGATG,0.2
11,GCTTTCACGTGTGATG,0.41
12,TGTGTCACGTGGCTCG,0.06
13,TCTTGCACGTGTCGTT,0.2
14,GGGGCCACGTGGGGCT,-0.16
15,AGGTACACGTGGTTAT,0.05
16,GGGGCCACGTGGGCAG,-0.32
17,CGGATCACGTGGTTGG,0.02
18,CTGATCACGTGGTATT,0.02
19,TACTTCACGTGTTTGG,0.3
20,CGGGCCACGTGTTTTG,-0.05
21,TTGCGCACGTGGACGT,-0.09
22,CGCGTCACGTGGTTTG,0.07
23,GTAAGCACGTGGGGGC,-0.19
24,ATCGGCACGTGCTGGT,-0.12
25,GGTCACACGTGTTTGG,0.04
26,TGATTCACGTGAGGTA,0.36

row,Sequence,relative binding free energy [kcal/mol]
1,GAAATCACGTGAGCGG,0.57
2,AATATCACGTGGGTGC,-0.03
3,GTTGACACGTGTGTGT,0.14
4,TCTCGCACGTGTTGTG,-0.14
5,TTGAGCACGTGTATTA,-0.15
6,TTGTACACGTGTCGGT,0.17
7,AGATGCACGTGATTTT,0.12
8,GTGGGCACGTGGTTAG,0.02
9,TGTGCCACGTGGCGGT,-0.23
10,AGGGACACGTGGCGGA,-0.15
11,AGATACACGTGGGTTG,-0.15
12,ATGGTCACGTGTGCTC,0.13
13,ATGGCCACGTGGGTAT,-0.16
14,AGTGGCACGTGTACAG,-0.12
15,GTCTGCACGTGAGGTA,0.19
16,AGGTACACGTGTTGTC,0.06
17,TTTATCACGTGTTTTC,0.31
18,TAGGGCACGTGCGGTC,-0.23
19,AAGGGCACGTGAGGTC,0.17
20,GGGAGCACGTGGTAGG,-0.18
21,TGGGGCACGTGTTTTG,-0.03
22,GGATTCACGTGTTTTT,0.27
23,CTAGGCACGTGTTAAG,-0.05
24,AGGGCCACGTGGGCGA,-0.32
25,GGACGCACGTGTTAGG,-0.07
26,TTTAACACGTGGAAGT,0.09

row,Sequence,relative binding free energy [kcal/mol]
1,CGTGGCACGTGGAAAT,0.14
2,CTTTGCACGTGGTGCG,-0.07
3,GGTTACACGTGAGTAG,0.34
4,GTGTACACGTGTGCAG,-0.02
5,TCTGGCACGTGACGGA,0.11
6,TGGGTCACGTGGATAC,0.08
7,TGTCTCACGTGTAGGC,0.2
8,CTTTGCACGTGAGGAT,0.21
9,GTAAGCACGTGGAGAG,0.03
10,TGTGTCACGTGTGACT,0.06
11,CGTTGCACGTGCGTTA,-0.11
12,GCAGGCACGTGGAAGG,-0.06
13,GATGTCACGTGCTGGT,0.13
14,GGAGACACGTGGCGTT,-0.02
15,GTGTTCACGTGAGTAG,0.38
16,CGTTTCACGTGGTCTT,0.24
17,TTAAACACGTGGGCTG,-0.14
18,AGCTTCACGTGGTCGT,0.16
19,TAGGGCACGTGCAATG,-0.1
20,AGGTACACGTGAGGTT,0.34
21,TAGGGCACGTGGAACG,-0.15
22,ATTTACACGTGTCGGA,0.07
23,TGCTTCACGTGATTGT,0.37
24,AATTTCACGTGGTGCT,0.13
25,TAAATCACGTGGGCGT,0
26,ATGTCCACGTGTTGGT,0

row,Sequence,relative binding free energy [kcal/mol]
1,TAGGGCACGTGTGGTA,-0.06
2,TCGTTCACGTGAGAGT,0.29
3,TGTGACACGTGTCTAG,-0.04
4,CGGGTCACGTGTCAGG,0.07
5,GGGTGCACGTGGTTGA,-0.07
6,GCTGGCACGTGAGTTA,0.19
7,AAGGCCACGTGGTTGG,-0.33
8,GTTGACACGTGCTAAG,0.11
9,AGCTTCACGTGTTGAG,0.13
10,TTTTACACGTGGCAAA,0.18
11,GAGTGCACGTGTTTTG,0.08
12,ATGAACACGTGGATGG,-0.07
13,GTTTTCACGTGGTCTT,0.25
14,TTGTGCACGTGGGTCG,-0.14
15,GGTATCACGTGTTGGC,0.22
16,TGCCGCACGTGGCGTG,-0.13
17,AGGCGCACGTGGATTG,-0.04
18,TACTTCACGTGGGGTT,0.03
19,TAGGTCACGTGTTCTG,0.06
20,AGCGGCACGTGCAGGG,-0.26
21,AGTTTCACGTGGAGCG,0.21
22,TCGGTCACGTGTGATT,0.03

# — the BET-seq Pho4 binding data (Le et al. 2018)
